Data: PubChem BioAssay AID1918934 (Molecular Pharmacology Branch, DTP, NCI, 2023)
Certain results were filed several times, with different values. The other results are left out here. There may be further records. The values listed for one entry repeat one measurement in other runs, samples, wells, individuals or studies.

System: 292921-168-R-J2-PDC complex spheroid viability
Experiment: Anticancer human tumor 292921-168-R-J2-PDC patient-derived pancreatic carcinoma cell line growth inhibition
Details: combination with iadademstat, compound alone
Excerpt: Multicellular complex tumor spheroid response to LSD1 Inhibitor Iadademstat in combination with a variety of drugs and investigational agents in selected tumor cell lines
The current study was undertaken to assess response to LSD1 inhibitors in combination with standard-of-care drugs and investigational agents in solid tumor complex spheroid models as well as in the K-562 leukemia. Complex spheroids include a stromal component modeled by human endothelial cells (HUVEC) and fibroblasts modeled by human mesenchymal stem cells (MSCs). The concentration ranges selected for each drug and investigational agent were based upon clinically achievable concentrations if the clinical Cmax of the agent was known.
Compounds. The drugs and investigational agents used in this study are listed on Table 1. All of the agents used, including staurosporine (NSC755774) and gemcitabine (NSC613327), were obtained from the Developmental Therapeutics Program, NCI. FDA-approved anticancer drugs are available from the NCI at http://dtp.nci.nih.gov/branches/dscb/oncology_drugset_explanation.html. Drugs and investigational agents were >95% pure by proton nuclear magnetic resonance (NMR) and liquid chromatography/mass spectrometry (LC/MS). […] If the clinical Cmax for an agent had not been determined, the highest concentration tested was 10 microM. […]
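Also: seven day compound exposure before luminescent viability read.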

SMILES	IC50 (run of 02/21/2022)	IC50 (run of 02/15/2022)
NC1CC1c1ccc(-c2cccc(O)c2)cc1 (configuration not stated)	> 10 µM, 6.96 µM, 8.98 µM, 7.96 µM, 9.66 µM	
NC1CCC(NC2CC2c2ccccc2)CC1 (configuration not stated)		8.62 µM, > 10 µM, 9.29 µM, 3.47 µM, 9.04 µM, 5 µM
